{
  "sequences": {"note": "The chains behind the UniProt entries cited, without tags or fusion partners. Where a name states a change or a piece, a line headed by the entry shows the natural chain unless it says otherwise. A line that says so, or that is headed by a name, gives the form on record, which may keep a tag or linker. Residues count along the entry.", "UniProt P61793": "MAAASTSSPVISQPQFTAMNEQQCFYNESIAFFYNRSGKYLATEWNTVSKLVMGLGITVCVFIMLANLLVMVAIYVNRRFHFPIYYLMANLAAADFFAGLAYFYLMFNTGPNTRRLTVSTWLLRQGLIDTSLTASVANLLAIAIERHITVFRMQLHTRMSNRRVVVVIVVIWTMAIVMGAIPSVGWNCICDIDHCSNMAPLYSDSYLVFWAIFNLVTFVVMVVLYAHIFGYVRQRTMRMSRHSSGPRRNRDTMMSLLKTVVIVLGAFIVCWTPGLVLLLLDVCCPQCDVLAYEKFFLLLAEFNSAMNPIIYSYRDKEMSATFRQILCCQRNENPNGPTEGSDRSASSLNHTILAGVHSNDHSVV", "GST-mouse LPA1 tail (aa 311-364)": "residues 311-364 of P61793", "GST-LPA1ΔC": "residues 311-361 of P61793", "GST-LPA1-AAA (P61793, form named)": "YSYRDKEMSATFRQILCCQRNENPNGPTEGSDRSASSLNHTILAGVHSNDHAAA"},
  "source": "paper PMC3493537",
  "key": {"[1]": {"target": "N-terminally tagged FLAG-LPA1 (UniProt P61793)", "experiment": "co-IP; HEK293 cell lysates (1% NP-40, 50 mM Tris pH 8.0, 150 mM NaCl) with mouse anti-FLAG IgG overnight at 4°C, protein G-Sepharose, immunoblot; cells serum starved or stimulated with 10 µM LPA for 5, 15 or 30 min (Fig. 2B), or in 10% serum (Fig. 6A)"}, "GST-GAIP": {"target": "T1, GST-GAIP (UniProt P49795)", "T1 sequence": "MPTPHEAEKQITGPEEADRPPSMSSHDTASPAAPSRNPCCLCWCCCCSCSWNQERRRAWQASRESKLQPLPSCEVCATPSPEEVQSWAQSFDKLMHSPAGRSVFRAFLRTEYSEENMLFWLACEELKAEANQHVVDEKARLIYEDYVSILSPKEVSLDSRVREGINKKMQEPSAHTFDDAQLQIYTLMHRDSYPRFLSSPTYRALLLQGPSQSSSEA", "experiment": "pull-down; 10 µg GST or GST fusion prebound to glutathione Sepharose beads, incubated with in vitro translated [35S]Met-labeled GIPC-PDZ in 50 mM Tris HCl pH 7.4, 100 mM NaCl, 0.5% NP-40 overnight at 4°C; autoradiography; only the target purified"}, "GST-LPA1-AAA (mouse)": {"target": "GST-LPA1-AAA (mouse) (UniProt P61793)", "experiment": "pull-down; 10 µg GST or GST fusion prebound to glutathione Sepharose beads, incubated with in vitro translated [35S]Met-labeled GIPC-PDZ in 50 mM Tris HCl pH 7.4, 100 mM NaCl, 0.5% NP-40 overnight at 4°C; autoradiography; only the target purified"}, "[2]": {"target": "GST-mouse LPA1 tail (aa 311-364) (mouse) (UniProt P61793)", "experiment": "pull-down; 10 µg GST or GST fusion prebound to glutathione Sepharose beads, incubated with in vitro translated [35S]Met-labeled GIPC-PDZ in 50 mM Tris HCl pH 7.4, 100 mM NaCl, 0.5% NP-40 overnight at 4°C; autoradiography; only the target purified"}, "GST-LPA1ΔC (mouse)": {"target": "GST-LPA1ΔC (mouse) (UniProt P61793)", "experiment": "pull-down; GST or GST fusion immobilised on glutathione beads, incubated 4-15 h with lysates of HEK293 cells transfected with FLAG-GIPC; immunoblot with anti-GIPC IgG; only the target purified"}, "[3]": {"target": "GST-mouse LPA1 tail (aa 311-364) (mouse) (UniProt P61793)", "experiment": "pull-down; GST or GST fusion immobilised on glutathione beads, incubated 4-15 h with lysates of HEK293 cells transfected with FLAG-GIPC; immunoblot with anti-GIPC IgG; only the target purified"}},
  "note": "Results are given in words; binding and its absence hold for the method and conditions named. In cells and extracts the contact can be indirect. Some entries that bind do so weakly or less than the wild type. For part of these data: Sequences can lack the tags named with a protein.",
  "data": [
    {"binder": "C-terminally tagged GIPC-GFP (protein, UniProt O14908 1-333) MPLGLGRRKKAPPLVENEEAEPGRGGLGVGEPGPLGGGGSGGPQMGLPPPPPALRPRLVFHTQLAHGSPTGRIEGFTNVKELYGKIAEAFRLPTAEVMFCTLNTHKVDMDKLLGGQIGLEDFIFAHVKGQRKEVEVFKSEDALGLTITDNGAGYAFIKRIKEGSVIDHIHLISVGDMIEAINGQSLLGCRHYEVARLLKELPRGRTFTLKLTEPRKAFDMISQRSAGGRPGSGPQLGTGRGTLRLRSRGPATVEDLPSAFEEKAIEKVDDLLESYMGIRDTELAATMVELGKDKRNPDELAEALDERLGDFAFPDEFVFDVWGAIGDAKVGRY", "values": [
      {"measurement": "binding", "setting": "[1]", "result": "binds"}
    ]},
    {"binder": "GIPC PDZ domain (aa 125-225) (domain or fragment, UniProt O14908 125-225, [35S]Met-labeled) AHVKGQRKEVEVFKSEDALGLTITDNGAGYAFIKRIKEGSVIDHIHLISVGDMIEAINGQSLLGCRHYEVARLLKELPRGRTFTLKLTEPRKAFDMISQRS", "values": [
      {"measurement": "binding", "setting": "GST-GAIP", "result": "binds"},
      {"measurement": "binding", "setting": "GST-LPA1-AAA (mouse)", "result": "no binding"},
      {"measurement": "binding", "setting": "[2]", "result": "binds"}
    ]},
    {"binder": "full-length GIPC (protein, UniProt O14908 1-333) MPLGLGRRKKAPPLVENEEAEPGRGGLGVGEPGPLGGGGSGGPQMGLPPPPPALRPRLVFHTQLAHGSPTGRIEGFTNVKELYGKIAEAFRLPTAEVMFCTLNTHKVDMDKLLGGQIGLEDFIFAHVKGQRKEVEVFKSEDALGLTITDNGAGYAFIKRIKEGSVIDHIHLISVGDMIEAINGQSLLGCRHYEVARLLKELPRGRTFTLKLTEPRKAFDMISQRSAGGRPGSGPQLGTGRGTLRLRSRGPATVEDLPSAFEEKAIEKVDDLLESYMGIRDTELAATMVELGKDKRNPDELAEALDERLGDFAFPDEFVFDVWGAIGDAKVGRY", "values": [
      {"measurement": "binding", "setting": "[1]", "result": "binds"}
    ]},
    {"binder": "HA-APPL (protein, UniProt Q9UKG1 1-709) MPGIDKLPIEETLEDSPQTRSLLGVFEEDATAISNYMNQLYQAMHRIYDAQNELSAATHLTSKLLKEYEKQRFPLGGDDEVMSSTLQQFSKVIDELSSCHAVLSTQLADAMMFPITQFKERDLKEILTLKEVFQIASNDHDAAINRYSRLSKKRENDKVKYEVTEDVYTSRKKQHQTMMHYFCALNTLQYKKKIALLEPLLGYMQAQISFFKMGSENLNEQLEEFLANIGTSVQNVRREMDSDIETMQQTIEDLEVASDPLYVPDPDPTKFPVNRNLTRKAGYLNARNKTGLVSSTWDRQFYFTQGGNLMSQARGDVAGGLAMDIDNCSVMAVDCEDRRYCFQITSFDGKKSSILQAESKKDHEEWICTINNISKQIYLSENPEETAARVNQSALEAVTPSPSFQQRHESLRPAAGQSRPPTARTSSSGSLGSESTNLAALSLDSLVAPDTPIQFDIISPVCEDQPGQAKAFGQGGRRTNPFGESGGSTKSETEDSILHQLFIVRFLGSMEVKSDDHPDVVYETMRQILAARAIHNIFRMTESHLLVTCDCLKLIDPQTQVTRLTFPLPCVVLYATHQENKRLFGFVLRTSSGRSESNLSSVCYIFESNNEGEKICDSVGLAKQIALHAELDRRASEKQKEIERVKEKQQKELNKQKQIEKDLEEQSRLIAASSRPNQASSEGQFVVLSSSQSEESDLGEGGKKRESEA", "values": [
      {"measurement": "binding", "setting": "[1]", "result": "binds"}
    ]},
    {"binder": "Endogenous GIPC (protein, UniProt O14908 1-333) MPLGLGRRKKAPPLVENEEAEPGRGGLGVGEPGPLGGGGSGGPQMGLPPPPPALRPRLVFHTQLAHGSPTGRIEGFTNVKELYGKIAEAFRLPTAEVMFCTLNTHKVDMDKLLGGQIGLEDFIFAHVKGQRKEVEVFKSEDALGLTITDNGAGYAFIKRIKEGSVIDHIHLISVGDMIEAINGQSLLGCRHYEVARLLKELPRGRTFTLKLTEPRKAFDMISQRSAGGRPGSGPQLGTGRGTLRLRSRGPATVEDLPSAFEEKAIEKVDDLLESYMGIRDTELAATMVELGKDKRNPDELAEALDERLGDFAFPDEFVFDVWGAIGDAKVGRY", "values": [
      {"measurement": "binding", "setting": "[1]", "result": "binds"}
    ]},
    {"binder": "FLAG-GIPC (protein, UniProt O14908 1-333) MPLGLGRRKKAPPLVENEEAEPGRGGLGVGEPGPLGGGGSGGPQMGLPPPPPALRPRLVFHTQLAHGSPTGRIEGFTNVKELYGKIAEAFRLPTAEVMFCTLNTHKVDMDKLLGGQIGLEDFIFAHVKGQRKEVEVFKSEDALGLTITDNGAGYAFIKRIKEGSVIDHIHLISVGDMIEAINGQSLLGCRHYEVARLLKELPRGRTFTLKLTEPRKAFDMISQRSAGGRPGSGPQLGTGRGTLRLRSRGPATVEDLPSAFEEKAIEKVDDLLESYMGIRDTELAATMVELGKDKRNPDELAEALDERLGDFAFPDEFVFDVWGAIGDAKVGRY", "values": [
      {"measurement": "binding", "setting": "GST-LPA1ΔC (mouse)", "result": "no binding"},
      {"measurement": "binding", "setting": "[3]", "result": "binds"}
    ]}
  ]
}
